# Reference: the supplement of paper PMC8728848
# The other results are listed elsewhere or left out.
# B1: IDGF2 (Drosophila melanogaster), Q9V3D4 (protein)
# chain: MKAWIWFTFVACLFAASTEAASNLVCYYDSSSYTREGLGKLLNPDLEIALQFCSHLVYGYAGLRGENLQAYSMNENLDIYKHQFSEVTSLKRKYPHLKVLLSVGGDHDIDPDHPNKYIDLLEGEKVRQIGFIRSAYDLVKTYGFDGLDLAYQFPKNKPRKVHGDLGLAWKSIKKLFTGDFIVDPHAALHKEQFTALVRDVKDSLRADGFLLSLTVLPNVNSTWYFDIPALNGLVDFVNLATFDFLTPARNPEEADYSAPIYHPDGSKDRLAHLNADFQVEYWLSQGFPSNKINLGVATYGNAWKLTKDSGLEGVPVVPETSGPAPEGFQSQKPGLLSYAEICGKLSNPQNQFLKGNESPLRRVSDPTKRFGGIAYRPVDGQITEGIWVSYDDPDSASNKAAYARVKNLGGVALFDLSYDDFRGQCSGDKYPILRAIKYRLHHHHHH
# Tests used:
# Assay in all cases: glycan array binding signal (z-score within array); higher = stronger binding
# Settings in all cases: glycan notation: IUPAC condensed, linker removed
# Fuc(b1-3)GlcNAc = biological target: Fuc(b1-3)GlcNAc
# Procedure, shortened: (§1)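 Negative Z-scores can be read as non-binding. The Z-score is calculated within each array and then averaged across arrays of one protein sequence at different concentrations or buffers and across linkers. Arrays, 3228 in all, were curated from the Consortium for Functional Glycomics database and kept only where the protein sequence was available.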
# Gal(a1-2)Gal = biological target: Gal(a1-2)Gal
# Procedure, shortened: as §1
# Gal(a1-3)Gal = biological target: Gal(a1-3)Gal
# Procedure, shortened: as §1
# Gal(a1-3)Gal(b1-3)Glc = biological target: Gal(a1-3)Gal(b1-3)Glc
# Procedure, shortened: as §1
# Gal(a1-3)Gal(b1-3)GlcNAc = biological target: Gal(a1-3)Gal(b1-3)GlcNAc
# Procedure, shortened: as §1
# Gal(a1-3)Gal(b1-4)GlcNAc = biological target: Gal(a1-3)Gal(b1-4)GlcNAc
# Procedure, shortened: as §1
# [1] = biological target: Gal(a1-3)Gal(b1-4)[Fuc(a1-3)]GalNAc
# Procedure, shortened: as §1
# Gal(a1-3)GlcNAc = biological target: Gal(a1-3)GlcNAc
# Procedure, shortened: as §1
# [2] = biological target: Gal(a1-3)[Gal(a1-4)]Gal(b1-4)GlcNAc
# Procedure, shortened: as §1
# Gal(a1-4)Gal(b1-4)Gal = biological target: Gal(a1-4)Gal(b1-4)Gal
# Procedure, shortened: as §1
# Gal(a1-4)Gal(b1-4)GalNAc = biological target: Gal(a1-4)Gal(b1-4)GalNAc
# Procedure, shortened: as §1
# Gal(a1-4)GlcNAc = biological target: Gal(a1-4)GlcNAc
# Procedure, shortened: as §1
# Gal(a1-6)Glc = biological target: Gal(a1-6)Glc
# Procedure, shortened: as §1
# Gal(b1-2)Gal = biological target: Gal(b1-2)Gal
# Procedure, shortened: as §1
# Gal(b1-3)Gal = biological target: Gal(b1-3)Gal
# Procedure, shortened: as §1
# Gal(b1-3)GalNAc = biological target: Gal(b1-3)GalNAc
# Procedure, shortened: as §1
# [3] = biological target: Gal(b1-3)GalNAc(b1-3)Gal(a1-4)Gal(b1-4)Glc
# Procedure, shortened: as §1
# [4] = biological target: Gal(b1-3)GalNAc(b1-3)Gal(b1-4)Glc
# Procedure, shortened: as §1
# [5] = biological target: Gal(b1-3)GalNAc(b1-3)Gal(b1-4)GlcNAc
# Procedure, shortened: as §1
# [6] = biological target: Gal(b1-3)GalNAc(b1-4)Gal(b1-4)Glc
# Procedure, shortened: as §1
# [7] = biological target: Gal(b1-3)GalNAc(b1-4)[Neu5Ac(a2-3)]Gal(b1-4)Glc
# Procedure, shortened: as §1
# [8] = biological target: Gal(b1-3)GlcNAc(b1-3)Gal(b1-3)GlcNAc
# Procedure, shortened: as §1
# [9] = biological target: Gal(b1-3)[Fuc(a1-4)]GlcNAc
# Procedure, shortened: as §1
# [10] = biological target: Gal(b1-3)[Fuc(a1-4)]GlcNAc(b1-3)Gal(b1-3)[Fuc(a1-4)]GlcNAc
# Procedure, shortened: as §1
# [11] = biological target: Gal(b1-3)[Fuc(a1-4)]GlcNAc(b1-3)Gal(b1-4)GlcNAc
# Procedure, shortened: as §1
# [12] = biological target: Gal(b1-3)[Fuc(a1-4)]GlcNAc(b1-3)Gal(b1-4)[Fuc(a1-3)]GlcNAc
# Procedure, shortened: as §1
# [13] = biological target: Gal(b1-3)[GlcNAc(b1-6)]GalNAc
# Procedure, shortened: as §1
# [14] = biological target: Gal(b1-3)[GlcNAc(b1-6)]GlcNAc
# Procedure, shortened: as §1
# [15] = biological target: Gal(b1-3)[Neu5Ac(a2-6)]GalNAc
# Procedure, shortened: as §1
# [16] = biological target: Gal(b1-3)[Neu5Ac(a2-6)]GlcNAc
# Procedure, shortened: as §1
# [17] = biological target: Gal(b1-3)[Neu5Ac(a2-6)]GlcNAc(a1-4)Gal(b1-4)Glc
# Procedure, shortened: as §1
# [18] = biological target: Gal(b1-3)[Neu5Ac(b2-6)]GlcNAc
# Procedure, shortened: as §1
# [19] = biological target: Gal(b1-4)GalNAc(a1-3)[Fuc(a1-2)]Gal(b1-4)GlcNAc
# Procedure, shortened: as §1
# [20] = biological target: Gal(b1-4)GalNAc(b1-3)[Fuc(a1-2)]Gal(b1-4)GlcNAc
# Procedure, shortened: as §1
# Gal(b1-4)Glc = biological target: Gal(b1-4)Glc
# Procedure, shortened: as §1
# Gal(b1-4)Glc6S = biological target: Gal(b1-4)Glc6S
# Procedure, shortened: as §1
# Gal(b1-4)GlcNAc = biological target: Gal(b1-4)GlcNAc
# Procedure, shortened: as §1
# [21] = biological target: Gal(b1-4)GlcNAc(b1-2)Man(a1-3)[Gal(b1-4)GlcNAc(b1-2)Man(a1-6)]Man(b1-4)GlcNAc(b1-4)GlcNAc
# Procedure, shortened: as §1
# [22] = biological target: Gal(b1-4)GlcNAc(b1-3)Gal(b1-3)GlcNAc
# Procedure, shortened: as §1
# [23] = biological target: Gal(b1-4)GlcNAc(b1-3)Gal(b1-4)Glc
# Procedure, shortened: as §1
# [24] = biological target: Gal(b1-4)GlcNAc(b1-3)Gal(b1-4)GlcNAc
# Procedure, shortened: as §1
# [25] = biological target: Gal(b1-4)GlcNAc(b1-3)Gal(b1-4)GlcNAc(b1-3)Gal(b1-4)GlcNAc
# Procedure, shortened: as §1
# [26] = biological target: Gal(b1-4)GlcNAc(b1-3)Gal(b1-4)[Fuc(a1-3)]GlcNAc(b1-3)Gal(b1-4)[Fuc(a1-3)]GlcNAc
# Procedure, shortened: as §1
# [27] = biological target: Gal(b1-4)GlcNAc(b1-3)GalNAc
# Procedure, shortened: as §1
# [28] = biological target: Gal(b1-4)GlcNAc(b1-3)[Gal(b1-4)GlcNAc(b1-6)]GalNAc
# Procedure, shortened: as §1
binder,measurement,setting,value
B1,glycan array binding signal (z-score),Fuc(b1-3)GlcNAc,0.017
same,glycan array binding signal (z-score),Gal(a1-2)Gal,-0.136
same,glycan array binding signal (z-score),Gal(a1-3)Gal,-0.457
same,glycan array binding signal (z-score),Gal(a1-3)Gal(b1-3)Glc,0.367
same,glycan array binding signal (z-score),Gal(a1-3)Gal(b1-3)GlcNAc,-0.286
same,glycan array binding signal (z-score),Gal(a1-3)Gal(b1-4)GlcNAc,-0.382
same,glycan array binding signal (z-score),[1],-0.365
same,glycan array binding signal (z-score),Gal(a1-3)GlcNAc,-0.42
same,glycan array binding signal (z-score),[2],-0.273
same,glycan array binding signal (z-score),Gal(a1-4)Gal(b1-4)Gal,-0.196
same,glycan array binding signal (z-score),Gal(a1-4)Gal(b1-4)GalNAc,-0.481
same,glycan array binding signal (z-score),Gal(a1-4)GlcNAc,-0.122
same,glycan array binding signal (z-score),Gal(a1-6)Glc,0.002
same,glycan array binding signal (z-score),Gal(b1-2)Gal,0.184
same,glycan array binding signal (z-score),Gal(b1-3)Gal,0.071
same,glycan array binding signal (z-score),Gal(b1-3)GalNAc,-0.108
same,glycan array binding signal (z-score),[3],-0.511
same,glycan array binding signal (z-score),[4],-0.183
same,glycan array binding signal (z-score),[5],-0.446
same,glycan array binding signal (z-score),[6],-0.283
same,glycan array binding signal (z-score),[7],-0.271
same,glycan array binding signal (z-score),[8],-0.411
same,glycan array binding signal (z-score),[9],-0.285
same,glycan array binding signal (z-score),[10],0.307
same,glycan array binding signal (z-score),[11],0.056
same,glycan array binding signal (z-score),[12],-0.21
same,glycan array binding signal (z-score),[13],-0.208
same,glycan array binding signal (z-score),[14],-0.046
same,glycan array binding signal (z-score),[15],-0.24
same,glycan array binding signal (z-score),[16],-0.096
same,glycan array binding signal (z-score),[17],-0.325
same,glycan array binding signal (z-score),[18],-0.472
same,glycan array binding signal (z-score),[19],-0.289
same,glycan array binding signal (z-score),[20],-0.185
same,glycan array binding signal (z-score),Gal(b1-4)Glc,-0.257
same,glycan array binding signal (z-score),Gal(b1-4)Glc6S,-0.199
same,glycan array binding signal (z-score),Gal(b1-4)GlcNAc,-0.03
same,glycan array binding signal (z-score),[21],-0.133
same,glycan array binding signal (z-score),[22],0.088
same,glycan array binding signal (z-score),[23],-0.086
same,glycan array binding signal (z-score),[24],-0.325
same,glycan array binding signal (z-score),[25],-0.353
same,glycan array binding signal (z-score),[26],0.098
same,glycan array binding signal (z-score),[27],0.065
same,glycan array binding signal (z-score),[28],0.121
